Inconclusive results are not listed. Some entries of the source have several records that differ or are many. Only these are listed. There may be further records. Results that share an entry differ for a reason that is not stated; dose, time, organism, isomer or construct need not be as stated for each record.
Test system: BDF1 mice, colon carcinoma 38 sc, T/C %
Assay: NCI In Vivo Anticancer Drug Screen. Data for tumor model Colon Carcinoma 38 (subcutaneous) in B6D2F1 (BDF1) mice
Conditions: endpoint: median tumor weight (est.), schedule: Q07DX002 (ip), higher = larger tumour
Procedure: The antitumor activity of compounds was measured in mice bearing transplantable tumors. Survival or tumor size were measured and the results are expressed as the measurement made in the treated group (T) divided by the measurement made in the vehicle treated control group (C). The tumor model used in this assay is Colon Carcinoma 38 (subcutaneous) in B6D2F1 (BDF1) mice

COC1C(O)CC(OC2CC(Oc3cc4cc5c(c(O)c4c(O)c3C)C(=O)[C@@H](OC3CC(OC4CC(OC6CC(C)(O)C(OC(C)=O)C(C)O6)C(O)C(C)O4)C(O)C(C)O3)[C@H]([C@H](OC)C(=O)[C@@H](O)[C@@H](C)O)C5)OC(C)C2OC(C)=O)OC1C (stereo not given in full)
T/C (dose: 0.32 mg/kg/injection, vehicle: Klucel (hydroxypropylcellulose) (HPC)): 87 % of control and 117 % of control

COc1cccc2c1C(=O)c1c(O)c3c(c(O)c1C2=O)C[C@@](O)(C(=O)CO)C[C@@H]3OC1CC(N)C(O)C(C)O1 (stereo not given in full)
T/C (dose: 0.75 mg/kg/injection, vehicle: water): 47 % of control and 110 % of control | T/C (dose: 1.5 mg/kg/injection, vehicle: water): 84 % of control and 122 % of control | T/C (dose: 3.0 mg/kg/injection, vehicle: water): 52 % of control, 74 % of control, 96 % of control | T/C (dose: 6.0 mg/kg/injection, vehicle: water): 31 % of control, 74 % of control, 83 % of control

— PubChem BioAssay AID212 (DTP/NCI, 2004)
